Molecules are shown by their SMILES.

For one experiment, the target named is ROCK1 (Homo sapiens (Human), UniProt Q13464). The experiment can be described thus: Radioisotope filter binding kinase assay. The note with it: 10 uM ATP, read-out: IC50 estimates, ROCK1. It counts as biochemical. How it is done: Experiment was conducted by Absorption Systems. […] The radioisotope filter binding assay is considered the gold standard for kinase profiling. The assay directly detects the true product without the use of modified substrates, coupling enzymes, or detection antibodies. Compounds are incubated with kinase, substrate, cofactors, and radioisotope-labeled ATP (^33P-Y-ATP). The reaction mixtures are then spotted onto filter papers, which bind the radioisotope-labeled catalytic product. Unreacted phosphate is removed via washing of the filter papers.
• Prepare kinase-specific substrate in freshly prepared Base Reaction Buffer (20 mM Hepes (pH 7.5), 10 mM MgCl2, 1 mM EGTA, 0.02% Brij35, 0.02 mg/ml BSA, 0.1 mM Na3VO4, 2 mM DTT, 10 µM ATP, and 1% DMSO). • Add kinase enzyme into the substrate solution and gently mix. • Add compounds in DMSO into the kinase reaction mixture by Acoustic technology (Echo550; nanoliter range), incubate for 20 minutes at room temperature. • Add ^33P-ATP (specific activity 10 μCi/μl)) into the reaction mixture to initiate the reaction. • Incubate kinase reaction for 2 hours at room temperature. • Spot reactions onto P81 ion exchange paper. • Detect kinase activity by filter-binding method.

In the next experiment the target is PDK1 (Homo sapiens (Human), UniProt O15530). The experiment can be described thus: AGC Kinase Selectivity Profiling (ADP-Glo). The experiment is classed as biochemical. The note with it: 1 μM compound; AGC Panel; read-out: Percent enzyme activity inhibition, PDK1. The text has this:
ROCK1 (also called ROCK I, ROKβ, Rho-kinase β, or p160ROCK) and ROCK2 ((also known as ROCK II, ROKα, or Rho kinase) belong to AGC family of serine/threonine kinases. The group of AGC kinases consists of 63 evolutionarily related serine/threonine protein kinases comprising PDK1, PKB/Akt, SGK, PKC, PRK/PKN, MSK, RSK, S6K, PKA, PKG, DMPK, MRCK, ROCK, NDR, LATS, CRIK, MAST, GRK, Sgk494, and YANK, while two other families, Aurora and PLK, are the most closely related to the group (Leroux et al., AGC kinases, mechanisms of regulation and innovative drug development, Semin Cancer Biol. 2018 February; 48:1-17).
A general note: ADP-Glo first removes unused ATP, then detects ADP through luciferase.

Sequence of UniProt O15530 (O15530 whole entry): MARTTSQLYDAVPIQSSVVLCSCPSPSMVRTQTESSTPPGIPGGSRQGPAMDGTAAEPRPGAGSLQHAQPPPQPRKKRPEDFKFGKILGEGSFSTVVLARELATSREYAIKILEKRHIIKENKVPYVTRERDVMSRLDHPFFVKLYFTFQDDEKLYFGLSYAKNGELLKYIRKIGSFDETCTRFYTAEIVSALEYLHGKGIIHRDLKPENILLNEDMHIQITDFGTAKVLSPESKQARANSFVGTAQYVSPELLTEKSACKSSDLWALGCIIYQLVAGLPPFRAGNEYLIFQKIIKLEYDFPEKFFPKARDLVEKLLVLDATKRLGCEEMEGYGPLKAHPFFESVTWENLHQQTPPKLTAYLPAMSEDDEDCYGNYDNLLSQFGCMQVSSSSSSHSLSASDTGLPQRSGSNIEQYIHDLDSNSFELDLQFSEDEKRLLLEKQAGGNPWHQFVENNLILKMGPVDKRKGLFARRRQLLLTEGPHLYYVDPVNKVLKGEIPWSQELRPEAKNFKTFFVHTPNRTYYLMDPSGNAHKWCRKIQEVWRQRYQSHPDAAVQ

`Cl.Cl.NCC(C(=O)Nc1ccc2cnccc2c1)c1ccc(B(O)O)cc1` (centres unmarked) [Compound 10•2HCl]: the half-inhibitory concentration (IC50) on ROCK1 is 10 nM. Consider `Cc1ccc(C(=O)OCc2ccc([C@@H](CN)C(=O)Nc3ccc4cnccc4c3)cc2)c(C)c1.Cl.Cl` [Netarsudil•2HCl, Netarsudil, reference compound], for which, on PDK1, the inhibition at 1 µM came to 77%.

A word on the IC50: it is the concentration needed to halve the response being measured. Usually inhibition stands for the change of the read-out against control, counted positive when it falls.

These data come from patent publication US12479866B2, “Boron-containing rho kinase inhibitors” (Percipiad, Inc., priority 2019, dated 2025).
